# From PubChem BioAssay AID588342 (National Center for Advancing Translational Sciences (NCATS), 2011)
# The whole screen tested about 360,000 compounds, of which about 25,000 (6.9%) were called active. Inconclusive means that the source gave no clear call. Such entries were picked first, then a sample of the others. Calls follow the shape of the dose curve; as a rule, active = well fitted inhibition curve with a large enough effect; inconclusive = small, poorly fitted or top-dose-only effect; inactive = flat fitted curve, though single readings scatter. Potencies beside an inconclusive call are fits to weak or partial responses and may not hold up.
# Target: Luciferin 4-monooxygenase (Photinus pyralis) (UniProt P08659)
# UniProt P08659, sequence (P08659 whole entry, looked up): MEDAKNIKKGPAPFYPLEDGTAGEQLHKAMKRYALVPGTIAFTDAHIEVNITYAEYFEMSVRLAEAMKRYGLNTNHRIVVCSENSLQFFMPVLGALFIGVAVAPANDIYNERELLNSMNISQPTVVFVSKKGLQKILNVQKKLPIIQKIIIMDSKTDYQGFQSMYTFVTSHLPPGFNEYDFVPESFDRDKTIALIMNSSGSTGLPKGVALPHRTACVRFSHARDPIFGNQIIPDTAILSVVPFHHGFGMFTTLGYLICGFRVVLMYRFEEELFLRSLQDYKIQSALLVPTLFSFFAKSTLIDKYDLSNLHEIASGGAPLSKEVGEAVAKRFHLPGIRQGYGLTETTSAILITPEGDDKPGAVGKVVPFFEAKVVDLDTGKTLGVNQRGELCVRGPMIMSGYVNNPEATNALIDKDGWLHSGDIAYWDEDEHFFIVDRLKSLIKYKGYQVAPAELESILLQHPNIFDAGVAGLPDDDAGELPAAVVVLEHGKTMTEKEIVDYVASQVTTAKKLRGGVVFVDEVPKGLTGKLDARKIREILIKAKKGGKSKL
# Assay: qHTS profiling assay for firefly luciferase inhibitor/activator using purifed enzyme and Km concentrations of substrates (counterscreen for miR-21 project); also: nearly all actives have a fitted effect of over 55% in size;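 as to activity change, negative = inhibition: plate controls were vehicle for no effect and reference inhibitor for full effect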
# Conditions: purified FLuc, luminescence inhibition; series mostly up to 57.5 µM; activity change, negative = inhibition: at the top concentration
# In short: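 Purified P. pyralis luciferase, 10 nM final, with Km-level 10 uM D-luciferin and 10 uM ATP in 50 mM Tris acetate pH 7.5, 10 mM Mg acetate, 0.01% Tween-20, 0.05% BSA; 6-point qHTS titration about 60 µM downward; luminescence read.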
# Potency is read from the fitted curve at half-maximal effect; tags tell the direction and shape of the fitted curve.
SMILES,Potency,"activity change, negative = inhibition"
Cc1ccc(-n2ncc3c(NNC(=O)c4ccco4)ncnc32)c(C)c1,"inconclusive: 37.9 µM [inhibitor, partial curve, poor fit]",–
COc1ccccc1-n1c(=O)oc2ccc(Cl)cc2c1=O,active: 13.5 µM,–
CC(C)N(C(C)C)S(=O)(=O)c1ccc(N2CCc3ccccc3C2)nc1,active: 13.5 µM,–
CCN(CC)c1ccc(NC(=O)c2cnc3ccccn3c2=O)c(C)c1,"inconclusive: 30.1 µM [inhibitor, single point]",–
Cc1ccc(-c2nn(-c3ccccc3)cc2/C=N/NC(=O)CSc2nnc(C)n2-c2ccccc2)cc1,"inconclusive: 13.5 µM [inhibitor, partial curve]",–
COc1ccc(N2CC(C(=O)OCC(=O)c3ccc(C)cc3)CC2=O)cc1 (centres undefined),"inconclusive: 23.9 µM [inhibitor, partial curve, poor fit]",–
Cc1cccc(C(=O)N/N=C/c2ccc3c(c2)OCO3)n1,"inconclusive: 16.9 µM [inhibitor, partial curve]",–
COc1ccc(C(C(=O)NC(C)(C)C)N(C(=O)CCC(=O)Nc2cc(C)on2)c2cccc(F)c2)cc1 (centres undefined),–,inactive: -0.479%
O=C1c2ccccc2C(=O)N1CCCOc1ccccc1,"inconclusive: 23.9 µM [inhibitor, single point]",–
C=CCN(CC=C)C(=O)c1ccc(OC2CCN(S(=O)(=O)N(C)C)CC2)cc1,"inconclusive: 19 µM [inhibitor, partial curve]",–
CC(C)(C)c1ccc(C(=O)c2c[nH]c(C(=O)NCCc3ccccn3)c2)cc1,"inconclusive: 26.9 µM [inhibitor, partial curve, poor fit]",–
O=C(NC1CCS(=O)(=O)C1)/C(=C/c1ccc(Cl)cc1)NC(=O)c1ccccc1 (centres undefined),"inconclusive: 37.9 µM [inhibitor, partial curve, poor fit]",–
CC1CCCN(c2ncnc3c2cnn3-c2ccccc2)C1 (centres undefined),active: 0.19 µM,–
O=C(Nc1nnc(SCc2ccccc2Cl)s1)c1cccc([N+](=O)[O-])c1,"inconclusive: 23.9 µM [inhibitor, single point]",–
COCc1cc(C)nc2sc(C(=O)N3CCCCC3)c(N)c12,"inconclusive: 21.3 µM [inhibitor, partial curve, poor fit]",–
CN(C)C(CNC(=O)c1ccc2ccccc2c1)c1ccco1 (centres undefined),"inconclusive: 26.9 µM [inhibitor, single point]",–
O=C(NCc1ccco1)Nc1ccc(Br)cc1Cl,"inconclusive: 15.1 µM [inhibitor, partial curve]",–
COC(=O)[C@H](Cc1ccccc1)NC(=O)Nc1ccc(C)cc1,–,inactive: -0.456%
CCOc1cc(C2NN=C(c3ccccc3)S2)ccc1OCc1ccc(F)cc1 (centres undefined),active: 6.01 µM,–
CC1(C)CC(=O)C(C=Nc2ccccc2)=C(O)C1,"inconclusive: 23.9 µM [inhibitor, partial curve]",–
CC1(C)Cc2ccccc2C(/C(C#N)=N/O)=N1,"inconclusive: 23.9 µM [inhibitor, partial curve, poor fit]",–
COc1ccc(N2CCN(S(=O)(=O)CCNC(=O)c3c(F)cccc3Cl)CC2)cc1,–,inactive: -0.473%
Cc1nc2nc(CSc3nc4ccccc4s3)cc(=O)n2[nH]1,"inconclusive: 37.9 µM [inhibitor, single point]",–

SMILES,Potency,"activity change, negative = inhibition"
O=C(c1ccccc1)c1ccccc1N1C(=O)C=CC1=O,"inconclusive: 9.53 µM [inhibitor, partial curve]",–
CC(C)c1ccc(CNCc2ccccc2)cc1,"inconclusive: 33.8 µM [inhibitor, partial curve, poor fit]",–
O=C(CSc1nnc(CNC(=O)c2c(F)cccc2F)o1)Nc1ccc2c(c1)OCCO2,"inconclusive: 13.5 µM [inhibitor, partial curve]",–
CC(C)OCCCN1C(=O)c2[nH]nc(-c3ccccc3O)c2C1c1cccc(OCc2ccccc2)c1 (centres undefined),–,inactive: 2.35%
C=CCn1c(NCc2ccc(OC)cc2)nc2ccccc21,"inconclusive: 16.9 µM [inhibitor, partial curve]",–
O=C1CC(c2ccco2)c2ccc3ccccc3c2N1 (centres undefined),"inconclusive: 37.9 µM [inhibitor, partial curve, poor fit]",–
CC(=O)Nc1ccc(S(=O)(=O)N2CCC(C(=O)c3ccc(Cl)cc3)CC2)cc1,–,inactive: -0.452%
C/C(=N\NC(N)=S)C1C2C3CC4C5CC(C42)C1C53 (centres undefined),–,inactive: 3.55%
CNC(=O)CSc1nc(N)c2c3c(sc2n1)CCC3,"inconclusive: 21.3 µM [inhibitor, single point]",–
CC(Cc1cccs1)NC(=O)Nc1ccc([N+](=O)[O-])cc1 (centres undefined),"inconclusive: 21.3 µM [inhibitor, single point]",–
CCOC(=O)c1cc(C#N)c(SCC(=O)Nc2ccc(C(C)=O)cc2)[nH]c1=O,"inconclusive: 26.9 µM [inhibitor, partial curve, poor fit]",–
COC(=O)c1c(C)[nH]c(C(=O)/C=C/c2cccc(Cl)c2)c1C,"inconclusive: 0.849 µM [inhibitor, full curve]",–
c1ccc2oc(-c3[nH]ncc3CN3CCC(N4CCSCC4)CC3)cc2c1,–,inactive: -1.64%
CCN(CC(=O)Nc1ccc(NC(C)=O)cc1)C(=O)c1ccc(=O)[nH]c1,–,inactive: 1.81%
COc1ccc(C/C(C)=N/NS(=O)(=O)c2ccc(Br)cc2)cc1,"inconclusive: 19 µM [inhibitor, partial curve, poor fit]",–
O=C(OCC(=O)N1CCc2ccccc21)[C@@H]1CCCN1S(=O)(=O)c1ccccc1F,"inconclusive: 16.9 µM [inhibitor, partial curve, poor fit]",–
CCOC(=O)c1c(N2C(=O)Nc3ccccc3N2O)n[nH]c1-c1cccc(Cl)c1,"inconclusive: 8.49 µM [inhibitor, partial curve]",–
COc1ccccc1NC(=O)Cn1c([N+](=O)[O-])cnc1C,–,inactive: 4.39%
CCCc1c(C)c2ccc(OCC(C)=O)cc2oc1=O,"inconclusive: 16.9 µM [inhibitor, partial curve, poor fit]",–
O=C(Nc1ccc2[nH]ccc2c1)c1ccc(F)cc1,active: 1.51 µM,–
O=C(CCS(=O)(=O)Cc1ccccc1)Nc1ncc([N+](=O)[O-])s1,"inconclusive: 2.39 µM [inhibitor, partial curve]",–
CCOC(=O)c1ccc2[nH]c3c(c2c1)CCCC3O (centres undefined),"inconclusive: 26.9 µM [inhibitor, single point]",–
CCOC(=O)C1CCCN(C(=O)c2ccc(NC(=O)c3nsc4ccccc34)cc2)C1 (centres undefined),active: 12 µM,–

SMILES,Potency,"activity change, negative = inhibition"
NS(=O)(=O)c1ccc(NC(=O)CSc2nc3c(cnn3-c3ccccn3)c(=O)[nH]2)cc1,–,inactive: 0.584%
O=C(/C=C/c1ccccc1)Oc1cccc(C(=S)N2CCOCC2)c1,active: 9.53 µM,–
COC(=O)c1ccccc1NC(=O)Cn1c(=O)cc(C)c2c(C)nn(-c3cccc(Cl)c3C)c21,–,inactive: 0.184%
CC(C)c1ccc(N(CC(=O)NCCSC(C)(C)C)S(C)(=O)=O)cc1,"inconclusive: 26.9 µM [inhibitor, single point]",–
C=CCn1c(=NC(=O)c2cccc(N3C(=O)CCC3=O)c2)sc2cccc(OC)c21,"inconclusive: 21.3 µM [inhibitor, single point]",–
COc1ccc(N2CC(C(=O)N[C@@H](C)C(=O)NC3CCCC3)CC2=O)cc1 (some centres undefined),–,inactive: -3.05%
Cn1c(Oc2ccccc2)nc2c1c(=O)n(Cc1ccc(Cl)cc1Cl)c(=O)n2C,–,inactive: 5.84%
O=C(Cn1nc(-c2ccccc2)c2ccccc2c1=O)NN1CCOCC1,–,inactive: 0.864%
CCCCc1ccc(NC(=O)Nc2cnccn2)cc1,"inconclusive: 9.53 µM [inhibitor, partial curve]",–
O=C(CSc1ccccn1)N/N=C/c1c[nH]c2ccccc12,"inconclusive: 21.3 µM [inhibitor, single point]",–
Oc1ccc(N=Nc2ccc3c(c2)OCCO3)c2ncccc12,active: 5.36 µM,–
COc1cccc(Nc2sc(C(=O)c3ccc(Cl)cc3)c(N)c2C(=O)NCCc2ccc(OC)c(OC)c2)c1,"inconclusive: 10.7 µM [inhibitor, partial curve, poor fit]",–
O=C(CN1C(=O)S/C(=C\c2ccccc2Cl)C1=O)NCCCn1ccnc1,"inconclusive: 26.9 µM [inhibitor, single point]",–
O=C(N/N=C/c1cccc2nccnc12)c1ccncc1,"inconclusive: 37.9 µM [inhibitor, partial curve, poor fit]",–
COc1ccc(-c2[nH]c(-c3ccc4c(c3)OCO4)nc2-c2ccccc2)cc1,"inconclusive: 21.3 µM [inhibitor, single point]",–
CNc1nc(-c2c[nH]c3ccccc23)cs1,"inconclusive: 26.9 µM [inhibitor, single point]",–
CCOC(=O)/C(C#N)=C1\C(=O)N(Cc2ccccc2)c2ccccc21,"inconclusive: 26.9 µM [inhibitor, partial curve]",–
CSC(C(=O)c1cc2ccccc2o1)c1ccccc1 (centres undefined),"inconclusive: 26.9 µM [inhibitor, partial curve, poor fit]",–
COc1ccc2c(C#N)c3ccccn3c2c1,–,inactive: -10%
CC(=O)c1cccc(NC(=O)N2CCC(CN3CCCCC3)CC2)c1,–,inactive: -4.3%
Cn1c(NC(=O)/C=C/c2ccco2)cc(=O)n(C)c1=O,"inconclusive: 23.9 µM [inhibitor, partial curve]",–
Cc1c(CCC(=O)O)c(=O)oc2c(C)c(OCc3cc4c(cc3Cl)OCO4)ccc12,"inconclusive: 26.9 µM [inhibitor, partial curve, poor fit]",–
COc1ccc(Br)c(C(=O)OCC(=O)NC2CCCCCC2)c1,"inconclusive: 21.3 µM [inhibitor, partial curve, poor fit]",–
